Experimental data as given in PubChem BioAssay AID485344 (National Center for Advancing Translational Sciences (NCATS), 2010).
Screen size: about 340,000 compounds; about 6,900 (2%) were called active. Cut-off read from the data, not from the text of the source: active = inhibition above about 30%; inactive = below that, where a call was filed. This is a selection; strong and weak results do not stand in their true shares. Entries without a call were filed so in the source.

biological target: D(2) dopamine receptor (Homo sapiens) (UniProt P14416); test: HTS Assay for Allosteric Antagonists of the Human D2 Dopamine Receptor: Primary Screen for Antagonists; details: HEK293 TREx D2 cells, calcium flux, dopamine EC80; at 10 µM; stronger effect = higher value; note: 0% is about no effect
Method in brief: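 Dopamine at EC80 is the agonist stimulus; test compounds precede it by 180 s. Calcium flux read kinetically in a force-coupled, inducible HEK293 T-REx D2 cell line.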

Sequence of UniProt P14416 (P14416 whole entry, looked up): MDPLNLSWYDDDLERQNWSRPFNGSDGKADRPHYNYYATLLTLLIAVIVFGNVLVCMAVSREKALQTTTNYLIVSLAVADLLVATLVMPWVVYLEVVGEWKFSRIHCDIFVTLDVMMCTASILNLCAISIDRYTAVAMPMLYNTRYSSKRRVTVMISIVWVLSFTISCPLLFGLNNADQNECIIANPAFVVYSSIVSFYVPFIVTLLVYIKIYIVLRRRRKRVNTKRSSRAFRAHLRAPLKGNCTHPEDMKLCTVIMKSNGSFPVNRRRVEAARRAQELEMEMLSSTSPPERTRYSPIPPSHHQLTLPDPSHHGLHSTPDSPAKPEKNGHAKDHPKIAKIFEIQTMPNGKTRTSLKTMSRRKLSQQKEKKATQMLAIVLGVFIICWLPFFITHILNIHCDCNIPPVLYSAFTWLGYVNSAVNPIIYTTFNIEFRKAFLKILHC

Compared with `Nc1nonc1-c1nc2ccccc2n1Cc1c(Cl)cccc1Cl`, `CC(C)c1ccc(C2=CC(c3cccc(Cl)c3)n3c(nc4ccccc43)N2)cc1` (centres undefined) is higher in inhibition: -4.58% for the first, 3.09% for the second.

Compared with `COc1ccc(N(CC(=O)NCCc2ccccc2)S(=O)(=O)c2ccc(OC)c(OC)c2)cc1`, `CCn1c(=O)cc(OCC(=O)N(C)c2ccc(OC)cc2)c2ccccc21` is lower in inhibition: 20.1% for the first, -5.05% for the second.

First: O=C(C1CCCN(S(=O)(=O)c2cccc3nonc23)C1)N1CCN(c2ccccc2Cl)CC1 (centres undefined)
Second: CCOC(=O)Cn1c(=O)oc2cc(S(=O)(=O)N3CCN(c4ccccc4OC)CC3)ccc21
The inhibition of the first is higher: 14.4% for the first, 9.65% for the second.

First: Cc1ccccc1NC(=O)c1c(C)oc2ccc(O)c(CN3CCC(C)CC3)c12
Second: COc1ccc(C)cc1NC(=O)c1c2c(nc3ccccc13)C(=O)N(C1CCCCC1)C2
The inhibition of the first is higher: 27% for the first, 13.7% for the second.

First: CCCOc1ccc(C(=O)Nc2ccc3nn(-c4ccc(OC)c(Cl)c4)nc3c2)cc1
Second: COc1ccc(Cl)cc1C(=O)Nc1ccc2nc(Nc3cccc(Cl)c3)cc(C)c2c1
The inhibition of the first is higher: -13.3% for the first, -20.4% for the second.

Going from `COc1cccc2c1Oc1nc(-c3ccccc3)nc(SCC(=O)Nc3ccccc3)c1C2` to `CC(=O)c1cccc(Nc2nc(-c3cccc(C)c3)nc3ccccc23)c1`, the inhibition rises from -23% to 0.711%.

First: CCOc1ccc(-c2nnc(SCC(=O)Nc3cc(F)ccc3F)o2)cc1
Second: CCOc1ccc(NC(=O)CN2C(=O)C(c3ccc(Cl)cc3)=NC2(C)C)cc1
The inhibition of the first is higher: 14.5% for the first, 0.367% for the second.

Going from `COCCCNC(=O)c1ccc(Cn2c(=O)c3ccccc3n(Cc3ccccc3C)c2=O)cc1` to `COc1ccc(C2=C(C)C(=O)N(Cc3ccc(C(=O)NC(C)c4ccccc4)cc3)S2(=O)=O)cc1` (centres undefined), the inhibition rises from -19.7% to -15.4%.

Compared with `COc1ccc(CNC(=O)c2ccc(NC(=O)N3CCSc4ncccc43)cc2)cc1OC`, `O=C(Nc1ccc(C(=O)N2CCN(c3ccccc3F)CC2)cc1)c1nsc2ccccc12` is higher in inhibition: 2.7% for the first, 20.1% for the second.

First: COc1ccc(OC)c(-c2noc(N3CCN(c4ccc(C(C)=O)cc4)CC3)n2)c1
Second: Cc1nnc2c(N3CCN(c4ccc(F)cc4)CC3)nc3ccc(C(=O)c4ccccc4)cc3n12
The inhibition of the first is higher: 15.2% for the first, -2.64% for the second.

First: CCOC(=O)c1c(NC(=O)CCCOc2ccc(Cl)cc2)sc2c1CCC2
Second: CCOc1ccc(C(=O)NCC(c2ccc(Cl)cc2)N2CCCCC2)cc1 (centres undefined)
The inhibition of the first is lower: -3.16% for the first, 6.21% for the second.

Going from `COc1ccc(OC)c(NC(=O)Cn2ccn(-c3ccc(OC)c(OC)c3)c(=O)c2=O)c1` to `COc1ccc(OC)c(CNC(=O)c2ccc3nc(C(C)C)oc3c2)c1`, the inhibition rises from 8.4% to 17.4%.

First: CCc1ccc(NC(=O)Nc2ccccc2OCc2cc(=O)n3ccccc3n2)cc1
Second: Cc1ccccc1C(=O)Nc1ccc(OCc2cc(=O)n3ccccc3n2)cc1
The inhibition of the first is lower: 3.53% for the first, 14.3% for the second.

Compared with `CCOC(=O)c1cc(-c2ccc(OC)c(S(=O)(=O)NCc3ccccc3Cl)c2)on1`, `COc1ccc(-c2onc(C)c2C)cc1S(=O)(=O)Nc1cccc(C#N)c1` is higher in inhibition: -2.3% for the first, 4.03% for the second.

First: O=C(CN1C(=O)C2(SCC(=O)N2c2cccc(F)c2)c2ccccc21)NCCc1ccccc1 (centres undefined)
Second: Cc1cccc(N2C(=O)CSC23C(=O)N(CC(=O)Nc2cccc(Cl)c2)c2ccccc23)c1 (centres undefined)
The inhibition of the first is lower: -9.81% for the first, -1.17% for the second.

Going from `O=C(NCCc1csc(-c2cccnc2)n1)c1ccccc1` to `CCN1c2ccccc2-c2nc(SCC(=O)NCc3ccccc3)ncc2S1(=O)=O`, the inhibition rises from -7.89% to -3.36%.

Compared with `Cc1ccccc1C(=O)OCc1cc(=O)n2nc(C3CCCCC3)sc2n1`, `Cc1cc(=O)n2nc(N3CCC(C(=O)Nc4c(C)cccc4C)CC3)sc2n1` is lower in inhibition: 5.88% for the first, -10.2% for the second.

Going from `COc1ccc(-c2nnn3c2nc(NCc2ccc(C)cc2)c2ccccc23)cc1` to `Cc1ccc(C)c(S(=O)(=O)c2nnn3c2nc(Nc2ccc(C)c(C)c2)c2ccccc23)c1`, the inhibition rises from -19.2% to -18.2%.

First: Cc1cc(C)c(NC(=O)C(C)n2c(=O)cc(-c3ccccc3)c3c(C)nn(C)c32)c(C)c1 (centres undefined)
Second: Cc1cc(C)cc(NC(=O)c2sc3nc4n(c(=O)c3c2C)N=C(c2ccccc2)CS4)c1
The inhibition of the first is higher: 12.1% for the first, 8.91% for the second.

Compared with `CC(=O)C1=C(c2ccc(F)cc2)N(C(C)=O)n2c(nnc2C2CCCCC2)S1`, `O=C(NC1CCCCCC1)C1c2ccccc2C(=O)N1Cc1ccc(F)cc1` (centres undefined) is lower in inhibition: 25.1% for the first, 7.61% for the second.

Going from `CN(C)CCN(Cc1ccco1)C(=O)c1cc2c(s1)-c1ccccc1OC2` to `COc1cccc(C(=O)NCC(c2ccc(N(C)C)cc2)N2CCc3ccccc32)c1` (centres undefined), the inhibition falls from 12% to -5.92%.

First: CCOC(=O)N1CCc2c(sc3c2c(=O)n(-c2ccc(F)cc2)c(=O)n3CC(=O)c2ccc(Cl)cc2)C1
Second: CN1C(C(=O)c2ccccc2)=C(NC(=O)c2ccc(F)cc2)c2ccccc2S1(=O)=O
The inhibition of the first is higher: -10.8% for the first, -23.4% for the second.

Compared with `CCc1ccc(NS(=O)(=O)c2ccc(-c3cc(C)no3)cc2)cc1`, `Cc1ccc(CCNC(=O)c2c[nH]c3ccc(S(=O)(=O)Nc4ccc(C)cc4C)cc3c2=O)cc1` is higher in inhibition: -7.38% for the first, 11.5% for the second.

First: Cc1cccc(C(=O)NC2(C(F)(F)F)N=C(c3ccccc3)N(C3CCCCC3)C2=O)c1 (centres undefined)
Second: O=C(Cn1ncc2c3ccccc3n(Cc3cccc(Cl)c3)c2c1=O)NCCCN1CCCCC1
The inhibition of the first is higher: 10.6% for the first, 2.08% for the second.

Going from `CCOc1ccc(-c2cc(C(=O)NC(C)c3ccccc3)c3ccccc3n2)cc1` (centres undefined) to `CCOc1ccc(N2CC(c3nc4ccccc4n3CCCCOc3ccc(OC)cc3)CC2=O)cc1` (centres undefined), the inhibition rises from -3.8% to 1.43%.

Compared with `CCOCCCNc1nc2c(S(=O)(=O)c3ccc(CC)cc3)nnn2c2ccc(Cl)cc12`, `CCCc1ccc(S(=O)(=O)N2CCC(c3nnc(-c4cccc(C)c4)o3)CC2)cc1` is higher in inhibition: -8.76% for the first, 6.07% for the second.

First: Cc1ccc(C)c(N2CCN(S(=O)(=O)c3ccc(-c4cnc(C5CC5)o4)cc3)CC2)c1
Second: Cc1ccc(Cl)cc1N1CCN(C(=O)c2cc3ccc4cccnc4c3[nH]2)CC1
The inhibition of the first is higher: 7.45% for the first, 1.61% for the second.

Compared with `Cc1ccc(CNC(=O)Cn2c(=O)cc(C)c3c(C)nn(-c4cccc(F)c4)c32)cc1`, `COc1ccc(CNC(=O)CN2C(=O)CSc3ccc(S(=O)(=O)N(C)C)cc32)cc1` is lower in inhibition: 10.9% for the first, 2.59% for the second.

Going from `Cc1ccc(NC(=O)CSc2nc(-c3cccs3)nc3cc(=O)[nH]n23)cc1C` to `CCc1cccc(NC(=O)Cn2c(=O)n(CCC(=O)NCc3ccccc3Cl)c(=O)c3sccc32)c1`, the inhibition falls from -8.85% to -21.5%.

First: CCOc1ccccc1CN1CCc2nc(N3CCN(C)CC3)ncc2C1
Second: CCN(CC)c1ccc(NC(=O)CN2CCN(c3ccccc3OC)CC2)cc1
The inhibition of the first is lower: -8.07% for the first, -0.514% for the second.

Compared with `O=C(NCCc1ccccc1)C1CCN(Cc2cc3ccccc3n2Cc2ccccc2)CC1`, `CCN(C(=O)CSc1ncc2c(n1)-c1cc(Cl)ccc1N(Cc1ccccc1)S2(=O)=O)c1cccc(C)c1` is higher in inhibition: -13.5% for the first, 3.52% for the second.

Going from `Nc1c(C(=O)Nc2cccc(F)c2)nnn1-c1cccc(C(F)(F)F)c1` to `CCOc1ccccc1NC(=O)Cn1ncc2c([nH]c3ccccc32)c1=O`, the inhibition rises from -17.3% to 18.5%.

First: CCOC(=O)c1cc(C)n(CC2CCC(C(=O)Nc3cccc(Cl)c3)CC2)c1C (centres undefined)
Second: CCC(=O)N1CCc2cc(Br)cc(S(=O)(=O)N3CCCC(C(=O)Nc4cc(C)ccc4OC)C3)c21 (centres undefined)
The inhibition of the first is lower: -21.4% for the first, -7.74% for the second.

Going from `Oc1c(C(c2ccccc2)N2CCOCC2)sc2nc(-c3ccco3)nn12` (centres undefined) to `CCc1c(C)sc2c1CCN(C(=O)Nc1ccccc1C(=O)OC)C2c1ccc(OC)cc1` (centres undefined), the inhibition rises from -15.8% to 3.69%.

Compared with `COc1ccccc1CCN1COc2c(cc3c(C)c(C)c(=O)oc3c2C)C1`, `CCOc1ccc(Br)cc1C1C(C(=O)OC)=C(C)NC2=C1C(=O)c1ccccc12` (centres undefined) is lower in inhibition: 0.884% for the first, 0.882% for the second.

First: Cc1ccccc1OCC(=O)Nc1nnc(S(=O)(=O)N2CCCC2)s1
Second: Cc1ccc(NC(=O)Cn2cc(S(=O)(=O)N3CCCC3)c(S(=O)(=O)N3CCCC3)c2)cc1F
The inhibition of the first is lower: -11.6% for the first, -0.532% for the second.

Compared with `O=C(NCc1ccc(Cl)cc1)C1=Cc2cc(Br)ccc2OC1`, `Cc1ccc(Cl)cc1NC(=O)C(Cc1ccccc1)NS(=O)(=O)c1cccc2nsnc12` (centres undefined) is higher in inhibition: -16.4% for the first, 12.3% for the second.

First: Cc1ccc(-c2cc3ncc(C(=O)c4cc(Cl)c(C)cc4O)cn3n2)cc1
Second: Cc1ccc(NS(=O)(=O)c2ccc3c(c2)CC(=O)N3)cc1Cl
The inhibition of the first is lower: 2.64% for the first, 5.85% for the second.

Going from `COc1ccc(OC)c(C2Nc3c(C)cc(C)cc3-c3cc(C)nn32)c1` (centres undefined) to `Cc1nn(-c2ccc(N3CCCCC3)nn2)c(C)c1CCC(=O)NCc1ccc(OC(C)C)cc1`, the inhibition falls from 0.538% to -4.61%.

For `COC(=O)CCNC(=O)NC(CCC(C)C)c1c(-n2cccc2)sc2c1CCN(C)C2` (centres undefined), the inhibition was 3.16%.

For `CNC(=O)CSc1nnc(COc2ccc([N+](=O)[O-])cc2)n1C`, the inhibition was active: 75.9%.
In the case of `Cc1ccc(C(=O)NCCN2C3=NC[C@@H](Cc4ccccc4)N3C[C@H]2Cc2ccc(O)cc2)cc1Br`, the inhibition is reported as active: 68.1%.
In the case of `O=C(Cn1cnc2ccccc2c1=O)N1CCN(Cc2ccc3c(c2)OCO3)CC1`, the inhibition is reported as active: 55.2%.
With `C/C=C(/C)C(=O)Nc1cccc(C2=NOC3(C2)C[C@@H](C(N)=O)N(C(=O)CC)C3)c1` (some centres undefined) the inhibition was active: 43.4%.
For `COc1cc(C(CCN2CCCC2)c2c(OC)cc(OC)c3ccc(=O)oc23)cc(OC)c1OC` (centres undefined), the inhibition was active: 33%.
In the case of `O=C(COC(=O)C1(c2ccccc2)CC1)N1CCN(c2ccc(F)cc2)CC1`, the inhibition is reported as active: 35.5%.
For `Cc1c(N=c2scc(-c3ccccc3)n2C)c(=O)n(-c2ccccc2)n1C`, the inhibition was active: 75.5%.
With `COc1ccccc1-c1nn(-c2ccccc2)cc1C(=O)NCC(c1ccco1)N1CCCC1` (centres undefined) the inhibition was active: 40.4%.
`Cc1ccccc1OCCCCN1CCCCC1` was tested, and the inhibition was active: 49.5%.
`N#Cc1cnc(SCC(=O)Nc2ccccc2C(F)(F)F)nc1N` was tested, and the inhibition was active: 32%.
For `O=C(NCCCN1CCc2ccccc2C1)Nc1ccc(Br)cc1`, the inhibition was active: 30.7%.
`COc1ccc(CCNC2CCC(c3ccccc3)CC2)cc1` (centres undefined) was tested, and the inhibition was active: 77.7%.
For `Cc1ccc(-n2nc3c([n+]2[O-])CCc2nonc2-3)cc1`, the inhibition was active: 52.9%.
For `S=C(Nc1ccc(Cl)c(Cl)c1)NC1CCN(Cc2ccccc2)CC1`, the inhibition was active: 45.2%.
For `Cc1ccccc1N1CCN(Cc2c[nH]c3ccccc23)CC1`, the inhibition was active: 39.9%.
